From publication PMC9456277
Results are given in words; binding and its absence hold for the method and conditions named. In cells and extracts the contact can be indirect. Some entries that bind do so weakly or less than the wild type.

Chains of the proteins cited; added tags and fusions are not shown. Lines headed by an entry give the natural chain unless they say otherwise; changes in a name come on top. A line that says so, or that is headed by a name, gives the form on record, which may keep a tag or linker. Residues count along the entry.
neural cell adhesion molecule (NCAM) (P13595, residues 20-1115): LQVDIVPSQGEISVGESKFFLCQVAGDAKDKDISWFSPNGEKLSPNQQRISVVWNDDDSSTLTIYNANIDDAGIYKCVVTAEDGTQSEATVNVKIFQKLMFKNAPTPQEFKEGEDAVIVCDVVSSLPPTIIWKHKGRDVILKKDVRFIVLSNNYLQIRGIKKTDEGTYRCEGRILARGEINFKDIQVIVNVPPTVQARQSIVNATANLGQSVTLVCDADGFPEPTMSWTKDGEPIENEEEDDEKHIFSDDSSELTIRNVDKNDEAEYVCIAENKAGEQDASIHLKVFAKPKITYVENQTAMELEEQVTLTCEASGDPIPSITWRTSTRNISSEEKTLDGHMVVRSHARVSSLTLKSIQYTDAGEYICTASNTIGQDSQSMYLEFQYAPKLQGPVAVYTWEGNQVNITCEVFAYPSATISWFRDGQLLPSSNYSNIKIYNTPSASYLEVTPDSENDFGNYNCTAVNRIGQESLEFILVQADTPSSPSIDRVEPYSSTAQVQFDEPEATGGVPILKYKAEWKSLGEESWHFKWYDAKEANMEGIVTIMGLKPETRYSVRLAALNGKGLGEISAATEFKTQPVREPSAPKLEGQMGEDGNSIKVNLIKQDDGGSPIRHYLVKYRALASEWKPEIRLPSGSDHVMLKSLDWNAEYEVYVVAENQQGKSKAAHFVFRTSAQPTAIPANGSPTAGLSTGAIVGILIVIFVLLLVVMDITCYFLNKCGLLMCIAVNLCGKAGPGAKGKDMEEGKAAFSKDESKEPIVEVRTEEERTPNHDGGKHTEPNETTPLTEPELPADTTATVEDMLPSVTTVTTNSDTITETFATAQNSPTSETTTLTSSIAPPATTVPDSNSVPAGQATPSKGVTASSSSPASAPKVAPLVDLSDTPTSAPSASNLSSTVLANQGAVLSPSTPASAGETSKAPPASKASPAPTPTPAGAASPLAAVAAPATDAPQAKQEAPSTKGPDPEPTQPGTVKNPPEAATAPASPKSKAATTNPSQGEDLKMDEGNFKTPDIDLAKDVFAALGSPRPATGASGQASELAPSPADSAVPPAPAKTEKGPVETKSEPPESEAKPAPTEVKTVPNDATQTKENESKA
neural cell adhesion molecule isoform NCAM140 (P13595-2, form named): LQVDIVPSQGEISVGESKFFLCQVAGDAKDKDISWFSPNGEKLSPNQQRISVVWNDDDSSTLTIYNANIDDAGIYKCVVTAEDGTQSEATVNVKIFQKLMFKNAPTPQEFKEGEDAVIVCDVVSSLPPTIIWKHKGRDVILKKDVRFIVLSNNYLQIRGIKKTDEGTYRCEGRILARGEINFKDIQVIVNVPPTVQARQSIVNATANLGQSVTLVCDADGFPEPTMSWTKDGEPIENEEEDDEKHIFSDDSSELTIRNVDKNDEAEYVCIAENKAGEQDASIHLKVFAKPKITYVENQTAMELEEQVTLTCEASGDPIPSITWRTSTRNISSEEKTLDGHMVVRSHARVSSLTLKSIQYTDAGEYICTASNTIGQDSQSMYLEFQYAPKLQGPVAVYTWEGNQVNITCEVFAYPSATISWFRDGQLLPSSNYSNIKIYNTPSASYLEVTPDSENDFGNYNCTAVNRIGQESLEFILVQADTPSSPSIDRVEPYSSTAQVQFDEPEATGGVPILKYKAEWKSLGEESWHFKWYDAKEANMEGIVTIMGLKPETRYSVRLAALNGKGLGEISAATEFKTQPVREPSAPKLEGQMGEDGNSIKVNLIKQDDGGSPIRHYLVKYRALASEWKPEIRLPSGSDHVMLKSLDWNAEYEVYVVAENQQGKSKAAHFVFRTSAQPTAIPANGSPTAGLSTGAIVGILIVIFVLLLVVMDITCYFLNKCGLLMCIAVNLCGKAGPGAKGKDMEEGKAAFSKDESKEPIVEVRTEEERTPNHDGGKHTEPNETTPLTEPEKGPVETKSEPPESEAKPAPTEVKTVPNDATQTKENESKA
UniProt Q61056: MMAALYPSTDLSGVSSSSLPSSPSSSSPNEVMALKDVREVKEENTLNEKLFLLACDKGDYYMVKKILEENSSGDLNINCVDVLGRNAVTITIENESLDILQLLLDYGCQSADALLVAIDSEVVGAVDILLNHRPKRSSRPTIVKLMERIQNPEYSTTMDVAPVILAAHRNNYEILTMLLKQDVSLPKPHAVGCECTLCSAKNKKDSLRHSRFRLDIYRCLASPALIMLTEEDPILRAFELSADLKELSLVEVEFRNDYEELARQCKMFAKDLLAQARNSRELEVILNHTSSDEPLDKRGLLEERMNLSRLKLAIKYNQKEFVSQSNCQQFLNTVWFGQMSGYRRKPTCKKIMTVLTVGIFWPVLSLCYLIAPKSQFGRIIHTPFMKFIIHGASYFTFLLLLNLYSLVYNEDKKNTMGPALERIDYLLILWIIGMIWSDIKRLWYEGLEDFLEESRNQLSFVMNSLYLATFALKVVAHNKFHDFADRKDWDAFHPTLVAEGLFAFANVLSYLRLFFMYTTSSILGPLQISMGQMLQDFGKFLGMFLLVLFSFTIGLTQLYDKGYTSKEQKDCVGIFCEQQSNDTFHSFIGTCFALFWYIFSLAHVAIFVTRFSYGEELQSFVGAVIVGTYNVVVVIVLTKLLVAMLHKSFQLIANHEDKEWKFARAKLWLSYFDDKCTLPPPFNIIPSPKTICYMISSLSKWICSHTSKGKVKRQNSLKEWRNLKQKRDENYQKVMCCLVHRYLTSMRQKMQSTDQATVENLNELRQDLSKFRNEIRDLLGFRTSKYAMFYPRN
GST-tagged N-terminal ICD of TRPC1 (P48995, residues 1-386): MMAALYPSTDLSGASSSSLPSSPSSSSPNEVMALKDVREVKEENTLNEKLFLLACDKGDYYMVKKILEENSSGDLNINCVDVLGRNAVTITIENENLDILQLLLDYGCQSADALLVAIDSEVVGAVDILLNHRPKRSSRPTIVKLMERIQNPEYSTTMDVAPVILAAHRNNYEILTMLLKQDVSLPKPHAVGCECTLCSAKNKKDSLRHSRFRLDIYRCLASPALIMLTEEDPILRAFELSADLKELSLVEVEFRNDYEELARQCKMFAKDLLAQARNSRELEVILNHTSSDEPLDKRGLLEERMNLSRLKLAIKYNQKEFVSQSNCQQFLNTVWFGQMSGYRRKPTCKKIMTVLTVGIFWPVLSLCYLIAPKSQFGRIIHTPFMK
GST-tagged C-terminal ICD of TRPC1 (P48995, residues 638-793): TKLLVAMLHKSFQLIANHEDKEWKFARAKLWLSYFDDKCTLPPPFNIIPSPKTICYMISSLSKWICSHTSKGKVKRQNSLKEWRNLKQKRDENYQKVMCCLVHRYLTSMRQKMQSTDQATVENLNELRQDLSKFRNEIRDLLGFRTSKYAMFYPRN
UniProt Q9QUQ5: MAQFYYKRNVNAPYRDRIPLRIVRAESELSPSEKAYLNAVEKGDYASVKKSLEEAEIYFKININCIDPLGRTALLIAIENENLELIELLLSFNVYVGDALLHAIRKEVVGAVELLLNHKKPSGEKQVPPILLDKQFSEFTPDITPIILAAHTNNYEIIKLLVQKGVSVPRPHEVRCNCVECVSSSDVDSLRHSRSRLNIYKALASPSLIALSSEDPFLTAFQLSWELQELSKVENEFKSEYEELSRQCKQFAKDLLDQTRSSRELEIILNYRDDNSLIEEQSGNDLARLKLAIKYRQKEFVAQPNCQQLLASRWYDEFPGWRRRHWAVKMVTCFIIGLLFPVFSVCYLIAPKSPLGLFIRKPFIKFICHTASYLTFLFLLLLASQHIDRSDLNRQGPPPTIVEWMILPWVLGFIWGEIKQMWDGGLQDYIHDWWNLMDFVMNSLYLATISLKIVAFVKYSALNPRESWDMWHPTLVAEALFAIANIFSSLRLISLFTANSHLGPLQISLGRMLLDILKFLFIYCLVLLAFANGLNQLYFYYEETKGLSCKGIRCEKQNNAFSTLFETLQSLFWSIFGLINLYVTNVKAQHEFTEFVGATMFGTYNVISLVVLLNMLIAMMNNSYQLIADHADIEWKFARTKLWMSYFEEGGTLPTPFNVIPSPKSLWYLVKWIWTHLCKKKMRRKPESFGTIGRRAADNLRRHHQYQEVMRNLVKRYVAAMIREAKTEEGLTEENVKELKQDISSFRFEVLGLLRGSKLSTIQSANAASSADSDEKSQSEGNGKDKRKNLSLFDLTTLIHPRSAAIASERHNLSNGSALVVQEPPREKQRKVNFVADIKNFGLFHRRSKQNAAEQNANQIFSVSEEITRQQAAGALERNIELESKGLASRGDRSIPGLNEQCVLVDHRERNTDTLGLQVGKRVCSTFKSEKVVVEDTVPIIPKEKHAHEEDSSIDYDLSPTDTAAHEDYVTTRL
UniProt Q9QX29: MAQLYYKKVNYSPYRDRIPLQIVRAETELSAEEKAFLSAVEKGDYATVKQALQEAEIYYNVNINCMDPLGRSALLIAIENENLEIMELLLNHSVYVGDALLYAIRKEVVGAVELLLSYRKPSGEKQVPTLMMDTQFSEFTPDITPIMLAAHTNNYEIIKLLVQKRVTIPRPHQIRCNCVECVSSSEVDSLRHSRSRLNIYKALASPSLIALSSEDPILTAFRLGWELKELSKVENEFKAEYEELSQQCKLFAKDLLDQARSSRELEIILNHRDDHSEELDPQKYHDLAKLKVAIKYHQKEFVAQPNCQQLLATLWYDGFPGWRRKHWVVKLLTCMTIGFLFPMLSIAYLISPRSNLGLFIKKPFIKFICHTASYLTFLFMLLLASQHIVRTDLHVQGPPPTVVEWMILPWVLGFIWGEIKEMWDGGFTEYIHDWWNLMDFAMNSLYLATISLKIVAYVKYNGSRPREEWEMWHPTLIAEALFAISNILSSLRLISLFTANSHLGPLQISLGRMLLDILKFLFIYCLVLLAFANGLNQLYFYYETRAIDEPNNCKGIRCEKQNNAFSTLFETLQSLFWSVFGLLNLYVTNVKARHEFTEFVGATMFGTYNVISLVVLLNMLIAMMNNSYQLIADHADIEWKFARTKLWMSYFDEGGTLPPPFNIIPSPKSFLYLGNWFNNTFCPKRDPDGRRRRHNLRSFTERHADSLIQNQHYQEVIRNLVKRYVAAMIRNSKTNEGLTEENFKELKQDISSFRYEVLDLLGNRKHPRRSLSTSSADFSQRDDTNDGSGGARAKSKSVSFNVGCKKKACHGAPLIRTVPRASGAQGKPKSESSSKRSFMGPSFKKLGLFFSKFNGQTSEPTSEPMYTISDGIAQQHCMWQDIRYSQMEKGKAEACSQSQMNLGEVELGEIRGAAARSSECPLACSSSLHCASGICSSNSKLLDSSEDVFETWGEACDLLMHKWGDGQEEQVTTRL

Legend:
[1] = target: neural cell adhesion molecule (NCAM) (mouse (endogenous in mouse brain and neurons)) (UniProt P13595); experiment: co-IP; brain detergent extracts of wild-type and NCAM-deficient mice; IP with NCAM antibody H28 (extracellular domain); Western blot with TRPC1 E-6, TRPC4 N77/15, TRPC5 N67/15 and TRPC3/6/7 H-100
[2] = target: T1, transient receptor potential canonical channel 7 (TRPC7) (mouse (endogenous in mouse brain)) (UniProt Q9WVC5); experiment: co-IP; detergent extract (1% Nonidet P-40) of young adult mouse brain; IP with TRPC1 antibody H-105, TRPC4/5 antibody H-80, TRPC3/6/7 antibody H-100 or nonimmune Ig on Protein G or A Dynabeads, 2 h at 4 °C; Western blot with NCAM antibodies 5B8, D3 or TRPC3/6/7 antibody H-100
T1 sequence: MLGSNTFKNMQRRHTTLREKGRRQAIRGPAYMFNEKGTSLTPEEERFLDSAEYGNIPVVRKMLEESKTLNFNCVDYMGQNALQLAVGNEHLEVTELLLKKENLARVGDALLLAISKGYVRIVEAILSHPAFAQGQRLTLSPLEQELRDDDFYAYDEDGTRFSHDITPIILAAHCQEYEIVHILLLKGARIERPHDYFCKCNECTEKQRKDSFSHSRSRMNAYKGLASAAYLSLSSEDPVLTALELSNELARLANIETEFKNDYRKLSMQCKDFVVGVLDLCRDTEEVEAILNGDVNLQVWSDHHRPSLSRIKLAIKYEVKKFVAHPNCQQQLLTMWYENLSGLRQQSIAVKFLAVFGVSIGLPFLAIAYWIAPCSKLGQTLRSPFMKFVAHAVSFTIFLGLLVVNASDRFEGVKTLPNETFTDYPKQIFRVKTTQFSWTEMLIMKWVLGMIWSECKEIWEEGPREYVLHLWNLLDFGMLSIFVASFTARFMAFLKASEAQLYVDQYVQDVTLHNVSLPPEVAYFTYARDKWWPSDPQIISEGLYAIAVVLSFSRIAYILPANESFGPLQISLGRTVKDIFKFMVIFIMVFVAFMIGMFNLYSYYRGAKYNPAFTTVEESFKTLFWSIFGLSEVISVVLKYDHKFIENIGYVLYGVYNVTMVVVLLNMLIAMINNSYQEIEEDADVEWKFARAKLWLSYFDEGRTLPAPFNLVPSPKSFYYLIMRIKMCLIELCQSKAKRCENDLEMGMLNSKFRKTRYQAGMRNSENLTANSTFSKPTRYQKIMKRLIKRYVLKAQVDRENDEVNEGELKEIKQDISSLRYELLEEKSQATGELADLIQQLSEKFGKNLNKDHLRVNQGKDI

[3] = target: T2, transient receptor potential canonical channel 6 (TRPC6) (mouse (endogenous in mouse brain)) (UniProt Q61143); experiment: as above
T2 sequence: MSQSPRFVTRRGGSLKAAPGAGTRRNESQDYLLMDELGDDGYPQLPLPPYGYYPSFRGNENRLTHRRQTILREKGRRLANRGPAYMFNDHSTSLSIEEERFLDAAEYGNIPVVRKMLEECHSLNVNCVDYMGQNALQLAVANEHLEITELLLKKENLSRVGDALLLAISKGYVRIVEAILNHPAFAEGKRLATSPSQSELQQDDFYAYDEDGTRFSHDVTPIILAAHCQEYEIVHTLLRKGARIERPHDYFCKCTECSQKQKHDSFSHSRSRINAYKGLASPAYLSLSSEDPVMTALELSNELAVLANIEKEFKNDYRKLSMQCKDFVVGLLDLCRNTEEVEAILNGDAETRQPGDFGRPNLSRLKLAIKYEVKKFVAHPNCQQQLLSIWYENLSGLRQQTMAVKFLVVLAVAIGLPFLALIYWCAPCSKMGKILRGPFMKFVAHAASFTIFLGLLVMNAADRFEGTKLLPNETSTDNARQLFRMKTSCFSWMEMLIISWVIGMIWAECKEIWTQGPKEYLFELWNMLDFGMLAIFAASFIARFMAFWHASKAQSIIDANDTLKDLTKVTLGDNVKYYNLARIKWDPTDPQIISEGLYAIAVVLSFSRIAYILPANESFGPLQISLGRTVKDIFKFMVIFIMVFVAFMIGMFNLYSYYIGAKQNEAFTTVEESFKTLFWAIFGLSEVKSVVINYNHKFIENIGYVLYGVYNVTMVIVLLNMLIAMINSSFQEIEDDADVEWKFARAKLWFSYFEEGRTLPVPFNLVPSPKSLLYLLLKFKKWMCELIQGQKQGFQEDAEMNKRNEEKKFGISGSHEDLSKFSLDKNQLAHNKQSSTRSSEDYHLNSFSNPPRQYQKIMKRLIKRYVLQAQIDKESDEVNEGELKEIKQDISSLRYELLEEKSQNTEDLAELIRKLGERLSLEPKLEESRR

[4] = target: T3, transient receptor potential canonical channel 3 (TRPC3) (mouse (endogenous in mouse brain)) (UniProt Q9QZC1); experiment: as above
T3 sequence: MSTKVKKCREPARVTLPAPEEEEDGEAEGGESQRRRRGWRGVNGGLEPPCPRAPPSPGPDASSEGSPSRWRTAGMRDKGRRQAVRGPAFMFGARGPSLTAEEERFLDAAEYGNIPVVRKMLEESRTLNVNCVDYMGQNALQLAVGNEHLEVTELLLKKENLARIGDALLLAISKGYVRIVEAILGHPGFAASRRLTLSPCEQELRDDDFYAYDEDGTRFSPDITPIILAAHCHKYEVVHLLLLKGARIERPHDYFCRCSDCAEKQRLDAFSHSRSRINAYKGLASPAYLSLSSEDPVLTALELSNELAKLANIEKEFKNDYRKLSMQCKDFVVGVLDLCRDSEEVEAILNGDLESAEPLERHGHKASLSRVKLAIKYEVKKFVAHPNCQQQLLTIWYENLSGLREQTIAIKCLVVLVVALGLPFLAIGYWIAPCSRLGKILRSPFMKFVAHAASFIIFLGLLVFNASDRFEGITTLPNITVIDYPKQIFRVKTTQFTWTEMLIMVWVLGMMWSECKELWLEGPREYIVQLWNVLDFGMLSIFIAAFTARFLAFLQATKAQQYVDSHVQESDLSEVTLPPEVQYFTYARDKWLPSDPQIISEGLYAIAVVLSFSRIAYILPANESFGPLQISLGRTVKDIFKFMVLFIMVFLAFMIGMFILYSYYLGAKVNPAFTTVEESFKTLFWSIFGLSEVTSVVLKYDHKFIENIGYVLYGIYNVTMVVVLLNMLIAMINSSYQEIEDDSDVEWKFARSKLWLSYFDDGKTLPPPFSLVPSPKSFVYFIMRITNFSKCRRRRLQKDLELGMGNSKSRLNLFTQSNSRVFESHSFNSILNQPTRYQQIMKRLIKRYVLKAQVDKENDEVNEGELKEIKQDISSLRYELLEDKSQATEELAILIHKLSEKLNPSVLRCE

[5] = target: transient receptor potential canonical channel 1 (TRPC1) (mouse (endogenous in mouse brain and neurons)) (UniProt Q61056); experiment: as above
[6] = target: GST-tagged C-terminal ICD of TRPC1 (human) (UniProt P48995); experiment: pull-down; GST, GST-tagged N- or C-terminal TRPC1-ICD on glutathione–agarose beads, incubated with mouse brain detergent extract 2 h at 4 °C; Western blot with NCAM antibodies 5B8 and D3; only the target purified
[7] = target: GST-tagged N-terminal ICD of TRPC1 (human) (UniProt P48995); experiment: as above
[8] = target: transient receptor potential canonical channel 4 (TRPC4) (mouse (endogenous in mouse brain and neurons)) (UniProt Q9QUQ5); experiment: proximity ligation; Duolink assay on fixed, permeabilized wild-type cortical neurons transfected with plasma membrane and ER markers, read by TIRF microscopy; without or with function-triggering NCAM antibody or EndoN
[9] = target: transient receptor potential canonical channel 5 (TRPC5) (mouse (endogenous in mouse brain and neurons)) (UniProt Q9QX29); experiment: as above
[10] = target: transient receptor potential canonical channel 1 (TRPC1) (mouse (endogenous in mouse brain and neurons)) (UniProt Q61056); experiment: as above
[11] = target: transient receptor potential canonical channel 4 (TRPC4) (mouse (endogenous in mouse brain and neurons)) (UniProt Q9QUQ5); experiment: proximity ligation; Duolink assay on fixed cultured hippocampal, cerebellar and cortical neurons of wild-type and NCAM-deficient mice; NCAM antibody GTX133217 with TRPC1 E-6, TRPC4 N77/15 or TRPC5 N67/15, or PSA antibody 735 with TRPC1 GTX54876 or TRPC4 ACC-119; confocal microscopy
[12] = target: transient receptor potential canonical channel 5 (TRPC5) (mouse (endogenous in mouse brain and neurons)) (UniProt Q9QX29); experiment: as above
[13] = target: transient receptor potential canonical channel 1 (TRPC1) (mouse (endogenous in mouse brain and neurons)) (UniProt Q61056); experiment: as above

Row | binding [1] | binding [2] | binding [3] | binding [4] | binding [5] | binding [7] | Substance | further results
1 | binds | – | – | – | – | – | transient receptor potential canonical channel 5 (TRPC5) (from UniProt Q9QX29 1-975) | –
2 | binds | – | – | – | – | – | transient receptor potential canonical channel 1 (TRPC1) (from UniProt Q61056 1-793) | –
3 | – | no binding | no binding | no binding | binds | binds | neural cell adhesion molecule isoform NCAM180 (from UniProt P13595-1 20-1115) | binding [6]: no binding
4 | binds | – | – | – | – | – | transient receptor potential canonical channel 4 (TRPC4) (from UniProt Q9QUQ5 1-974) | –
5 | – | no binding | no binding | no binding | binds | binds weakly | neural cell adhesion molecule isoform NCAM140 (from UniProt P13595-2 20-848) | –
6 | – | – | – | – | – | – | neural cell adhesion molecule (NCAM) (from UniProt P13595 20-1115) | binding [8]: binds; binding [9]: binds; binding [10]: binds; binding [11]: binds; binding [12]: binds; binding [13]: binds
